Among all 310,000 compounds or so, about 14,000 (4.5%) showed an effect of 50% or more. The effect is printed as a negative number. This is one part of the list.
Molecular target: human ether-à-go-go-related gene (hERG) potassium channel (human, UniProt Q12809)
Assay: primary screen, population patch clamp on CHO cells stably expressing hERG
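Further: peak tail current of the secondary pulse compared with the same well before compound.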

Sequence of human ether-à-go-go-related gene (hERG) potassium channel (Q12809 whole entry, looked up): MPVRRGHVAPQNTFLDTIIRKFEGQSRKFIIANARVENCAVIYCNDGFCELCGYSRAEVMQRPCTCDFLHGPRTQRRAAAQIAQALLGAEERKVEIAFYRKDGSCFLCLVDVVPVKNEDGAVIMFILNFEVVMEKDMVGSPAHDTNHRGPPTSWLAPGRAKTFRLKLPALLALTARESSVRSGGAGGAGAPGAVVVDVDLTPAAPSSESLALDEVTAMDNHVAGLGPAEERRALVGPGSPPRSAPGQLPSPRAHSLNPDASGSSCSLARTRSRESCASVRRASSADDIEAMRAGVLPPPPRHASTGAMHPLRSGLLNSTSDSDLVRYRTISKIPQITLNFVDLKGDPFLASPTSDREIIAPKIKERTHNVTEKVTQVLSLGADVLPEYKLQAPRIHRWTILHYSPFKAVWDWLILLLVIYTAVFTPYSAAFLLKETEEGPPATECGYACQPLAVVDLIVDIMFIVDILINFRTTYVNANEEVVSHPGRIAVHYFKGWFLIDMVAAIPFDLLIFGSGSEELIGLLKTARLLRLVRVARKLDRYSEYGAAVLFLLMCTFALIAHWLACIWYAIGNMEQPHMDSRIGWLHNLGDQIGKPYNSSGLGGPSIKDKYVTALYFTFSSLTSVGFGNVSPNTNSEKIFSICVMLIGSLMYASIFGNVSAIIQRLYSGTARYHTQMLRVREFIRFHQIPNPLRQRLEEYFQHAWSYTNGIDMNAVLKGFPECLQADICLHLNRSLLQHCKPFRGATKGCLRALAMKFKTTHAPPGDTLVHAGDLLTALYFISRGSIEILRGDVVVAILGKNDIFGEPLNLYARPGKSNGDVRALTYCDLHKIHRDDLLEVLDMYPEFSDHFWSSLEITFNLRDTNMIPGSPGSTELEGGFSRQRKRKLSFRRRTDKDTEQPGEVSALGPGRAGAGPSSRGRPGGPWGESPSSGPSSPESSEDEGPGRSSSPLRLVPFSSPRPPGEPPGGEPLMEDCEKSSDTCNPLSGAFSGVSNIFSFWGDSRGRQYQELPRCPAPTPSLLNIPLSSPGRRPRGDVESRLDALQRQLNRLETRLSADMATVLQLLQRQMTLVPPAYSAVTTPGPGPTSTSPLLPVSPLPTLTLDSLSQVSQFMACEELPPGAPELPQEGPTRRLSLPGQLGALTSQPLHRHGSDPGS

Row | Structure (SMILES) | hERG current change (%, negative = inhibition) at 10uM [%]
1 | COC(=O)c1ccc(NC(=S)N2CCN(Cc3ccccc3OC)CC2)cc1 | -3.25
2 | Cc1cccc(Nc2nc(NCc3ccco3)nc(N3CCOCC3)n2)c1 | -31.2
3 | COc1ccccc1NC(=O)N1CCc2[nH]c3ccc(Cl)cc3c2C1 | 1.59
4 | Cc1cc(C)c(S(=O)(=O)N2CCCOC2CNC(=O)C(=O)NCCC2=CCCCC2)c(C)c1 (stereo not shown) | -0.914
5 | FC(F)(F)C1=NC(C(F)(F)F)=NP(N2CCOCC2)(N2CCOCC2)=N1 | 9.42
6 | Cc1c(C(=O)NNC(=O)c2csc(N3CCOCC3)n2)oc2ccccc12 | -38.7
7 | O=C(O)c1cncc(SCc2ccccc2)n1 | 8.07
8 | O=C(C1COc2ccccc2O1)N1CCc2ccccc21 (stereo not shown) | -5.51
9 | O=C(/C(=C(\[O-])c1ccccc1)[n+]1ccc2ccccc2c1)c1ccccc1 | -17.2
10 | COc1ccc(-c2cc3ccccc3nc2N)cc1OC | -7.35
11 | Cc1ccc(OCC(=O)N2CCC(Cc3ccccc3)CC2)c([N+](=O)[O-])n1 | -67.7
12 | COc1ccc(NC(=O)c2ccc(-n3cccn3)nc2)cc1 | 3.8
13 | CN(C)C(CNC(=O)CSc1nnc(-c2ccco2)o1)c1ccccc1 (stereo not shown) | -4.19
14 | CCOc1ccc(CN(CCO)CCO)cc1[N+](=O)[O-].Cl | -62.9
15 | Cc1cc(C)c(S(=O)(=O)NC2CC2)c(C)c1 | 6.97
16 | c1ccc(C2NCCc3[nH]cnc32)cc1 (stereo not shown) | 15
17 | CNS(=O)(=O)c1cccc(C(=O)OCC(=O)Nc2ccc(Cl)cc2F)c1 | 4.71
18 | C/C=C/c1c(F)c(F)c(Oc2ccc(C(=O)O)cc2)c(F)c1F | 10.9
19 | COc1cccc(NC(=O)c2sc(Cl)nc2C)c1 | 26.5
20 | Cc1nc(-c2ccc([N+](=O)[O-])cc2)nc2[nH]ccc(=O)c12 | 7.67
21 | CCN1CCN(Cc2ccc(NC(=O)c3cc(NC(=O)c4cnnc5ccccc45)cc(OC)c3)cc2C(F)(F)F)CC1 | -0.082
22 | CCCNS(=O)(=O)c1ccc(OCC(=O)N2CCc3ccccc3C2)c(C)c1 | -65.9

Row | Structure (SMILES) | hERG current change (%, negative = inhibition) at 10uM [%]
23 | Cc1cccc(N2CCN(C(=O)c3c(Cl)cnn3C)CC2)c1C | -26.6
24 | CC(=O)N1CCOc2ccc(S(=O)(=O)NCCc3cccc(C)c3)cc21 | -2.66
25 | N=c1c(C(=O)NCc2ccc3c(c2)OCO3)cc2c(=O)n3ccccc3nc2n1CC1CCCO1 (stereo not shown) | -79.5
26 | CCn1c(SCC(=O)Nc2ccc(C(=O)OC)cc2)nc2cccnc21 | -4.09
27 | COc1ccc(OC)c(Nc2nc(NCc3ccco3)nc(N)c2[N+](=O)[O-])c1 | 4.54
28 | CCn1c(=O)n(CC)c2cc(S(=O)(=O)N3CCc4ccccc43)ccc21 | 2.28
29 | CC(NC(=O)C1CCC(CNS(=O)(=O)c2ccccc2)CC1)c1ccccc1 (stereo not shown) | 22.7
30 | COc1ccc(C(=S)N2CCOCC2)cc1OC(=O)c1cccc([N+](=O)[O-])c1 | -39.9
31 | Cc1ccc(-c2nnn(CC(=O)NCCc3ccc4c(c3)OCO4)n2)cc1 | 11.6
32 | COc1ccc(OCC(=O)N2N=C(C(F)F)CC2(O)C(F)F)cc1 (stereo not shown) | 1.83
33 | F[B-](F)(F)F.O=[N+]([O-])c1ccc2nc(-[n+]3c(-c4ccccc4)cc(-c4ccccc4)cc3-c3ccccc3)[nH]c2c1 | -61.8
34 | COc1ccc2cc3c(N)nn(C(=O)c4cccc([N+](=O)[O-])c4)c3nc2c1 | 5.49
35 | C=CCSc1nnc(N2C(=O)C(O)=C(C(=O)c3ccco3)C2c2ccccc2F)s1 (stereo not shown) | 8.23
36 | COc1ccc(C2=NN(C(=S)Nc3ccccc3)C(c3ccccc3)C2)cc1 (stereo not shown) | 18
37 | COc1cc(/C=C2\SC(N)=NC2=O)ccc1OCC(=O)Nc1ccccc1C | -2.6
38 | CCC(C(=O)NC1CCCCC1)n1nc(C)c2c(C)n(-c3ccccc3)nc2c1=O (stereo not shown) | -43.8
39 | COc1ccc(C(=O)NC(=S)NCc2ccco2)cc1 | 10.5
40 | C[C@@H]1CC[C@@]23COC(=O)C2=CCC[C@@H]3[C@@]1(C)CC/C(=C/CO)CO | -6.27
41 | CC(Oc1ccc(F)cc1)C(=O)Nc1sc2c(c1C(=O)NCc1cccnc1)CCCC2 (stereo not shown) | -30.1
42 | Cc1noc(C)c1S(=O)(=O)N(CC(=O)NCc1ccc2c(c1)OCO2)c1ccc(C(C)C)cc1 | 9.81
43 | COc1ccc(N(CC(=O)NCc2ccc3c(c2)OCO3)C(=O)CCC(=O)Nc2ccccn2)cc1 | -4.44
44 | Cc1ccc(CN2CCNC(=O)C2CC(=O)N(C)C2CCCCC2)cc1 (stereo not shown) | -4.37

Row | Structure (SMILES) | hERG current change (%, negative = inhibition) at 10uM [%]
45 | CNC(=O)/C(C#N)=c1\s/c(=C/C(=O)OC)c(=O)n1-c1ccccc1 | 15.8
46 | CCCCn1c(N)c(N(CCOC)C(=O)COC(=O)COc2c(C)cccc2C)c(=O)[nH]c1=O | 12.4
47 | COc1ccc2c(c1)cc(C(=O)N[C@@H](Cc1ccccc1)C(=O)N[C@@H](C)C(=O)O)n2C | 15.5
48 | COC(=O)c1cc(NC(=O)c2cccc(F)c2)cc(C(=O)OC)c1 | 5.98
49 | COc1ccc(/C=C2\Sc3ccc(C(=O)NCc4cccnc4)cc3N(C)C2=O)cc1OC | -13.8
50 | COc1ccc(NC(=O)CSc2nnc(CC(=O)Nc3ccc(F)cc3)n2C)cc1 | -15.9
51 | CC(C)c1nnc(NC(=O)c2ccc3c(c2)OCO3)s1 | 16
52 | CCc1nnc(NC(=O)c2sc3nc(C)cc(COC)c3c2N)s1 | -7.43
53 | O=C(O)CCN1C(=O)c2ccc(NC(=O)COc3ccccc3)cc2C1=O | 2.08
54 | COc1ccccc1OCCCn1cc(C=O)c2ccccc21 | -3.23
55 | CC(=O)N1c2ccc(S(=O)(=O)N(C)CC(=O)N(C)Cc3ccccc3)cc2CC1C (stereo not shown) | 4.76
56 | CC(C)CCNC(=O)c1onc(CSc2nc3ccccc3[nH]2)c1C(=O)NCCC(C)C | 7.33
57 | COc1ccc(OC(C)C(=O)NC2CCCCCC2)cc1 (stereo not shown) | -0.287
58 | COc1ccccc1-n1cnnc1SCC(=O)N1CCN(C(=O)c2ccco2)CC1 | 6.54
59 | Cc1nnc(SCC(=O)N2CCC(c3noc4ccc(F)cc34)CC2)s1 | -25.1
60 | Cc1ccccc1C(=O)Nc1ccc(C(=O)N/N=C/c2ccc(O)cc2)cc1 | 10.7
61 | CCOC(=O)c1cc(-c2ccncc2)nc2c1c(C)nn2-c1ccccn1 | -63.3
62 | Cc1cc(NC(=O)c2ccc([N+](=O)[O-])cc2)no1 | 16.2
63 | COc1ccccc1-c1c(C(F)(F)F)oc2cc(OC(=O)c3cccc([N+](=O)[O-])c3C)ccc2c1=O | 16.9
64 | CCn1c(/C=N/n2cnnc2)nc2ccccc21 | -5.4
65 | Cc1cccn2c(=O)c(C=C(C#N)C#N)c(N3CCN(C)CC3)nc12 | -4.9
66 | COc1ccc(NC(=O)COC(=O)/C=C/c2cccs2)c(OC)c1 | 0.755

Row | Structure (SMILES) | hERG current change (%, negative = inhibition) at 10uM [%]
67 | CC(C)(C)c1nn2cnnc2n(/N=C/c2ccc(O)cc2)c1=O | -5.59
68 | CC(=O)c1ccc(C(=O)NC2CCCN(Cc3ccc(Cl)cc3)C2)s1 (stereo not shown) | -66.4
69 | N#Cc1c(F)cccc1N1CCOCC1 | 14.6
70 | CCc1ccccc1NC(=O)NNC(=O)CCc1ccc(OC)cc1 | 17.8
71 | CC1CCCCC1NS(=O)(=O)CCNC(=O)c1ccccc1 (stereo not shown) | -5.88
72 | COc1ccc(CCNC(=O)CNS(=O)(=O)c2ccc(Br)cc2)cc1 | -3.07
73 | CC1=CC(c2ccc(Cl)cc2)n2ncnc2N1 (stereo not shown) | -9.02
74 | O=C(Cn1c(=O)sc2ccccc21)Nc1ccc(O)cc1 | 14.6
75 | COc1ccccc1-c1cc(C(=O)Nc2c(F)cc(F)cc2Br)no1 | -32.1
76 | O=C1c2ccccc2C(=O)N1CCCCON1C(=O)c2ccccc2C1=O | 5.57
77 | O=C(OC(c1ccccc1)c1nccc2ccccc12)c1cc([N+](=O)[O-])cc([N+](=O)[O-])c1 (stereo not shown) | 22.9
78 | C[C@H](N)c1nnc(SCC(=O)N(C)C)o1.Cl | -2.88
79 | COc1ccc(S(=O)(=O)Nc2ccc(NC(C)=O)cc2)cc1Cl | 13.6
80 | Cc1cccc(-n2c(=O)c3c(n4cnnc24)-c2ccccc2CC32CCCCC2)c1 | -21.2
81 | Cc1ccc(C(=O)N2CCCCCC2)cc1S(=O)(=O)Nc1ccccc1 | -26.5
82 | CCOc1ccc(Nc2ncnc3c2cnn3C)cc1 | -16.6
83 | COCCN(Cc1cc2cc(C)ccc2n2nnnc12)C(=S)Nc1cccc(C)c1 | 28.9
84 | O=C(COc1ccc2c3c(c(=O)oc2c1)CCC3)N1CCN(c2ccccc2)CC1 | -12.6
85 | CCCN1CCN(CCCNC(=O)Cn2cc3c(n2)CCCC3)CC1 | -7.41
